Measured values reported in PMC12136788.
This is one part of the list.

B1: chr13:108229279:108229380:+|CDS|ENSG00000139826|unk|FALSE|unique (ssRNA)
RNA: GGGAGUUCUACAGUCCGACGAUCGCUAAUAGCCUUGGCUUCAUGGUCUUGGGCUCUCUGCCGUAUUUCUCUUUUACCUUUAAUAGUGACUUUUCAUCUGUAUGGAGGCAUUAUCUUACUUUUGUUAAUAUUCAUAUCAAUAGCCAACAGAGGAUUGAGCAUCA
B2: ENSG00000124766:be:win_2951|3pUTR|ENSG00000124766|bound_else_gene|NA|bound_elsewhere_windowed (ssRNA)
RNA: GGGAGUUCUACAGUCCGACGAUCCUUUAUUCCUUCCUUUUCCUUUUUUUCUUUUUUUUUUCUUUUUUUUUUUUUUUUUUUGGUAGUUGUUGUUACCCACGCCAUUUUACGUCUCCUUCACUGAAGGGCUAGAGUUUUAACUUUCAACAGAGGAUUGAGCAUCA
B3: chr7:139284418:139284519:+|CDS|ENSG00000157741|unk|FALSE|bound_elsewhere (ssRNA)
RNA: GGGAGUUCUACAGUCCGACGAUCGCAAUGAAUGUACCUGCCAGCAGAGGUAGCAACCUUAACUCAAGCGGAGCUAAUAGGACUAGUCUGUCUGGGGGAACAGGAAGUGGAACACAGGGUGCUACCAAACCAUUGUCUACUCCACAACAGAGGAUUGAGCAUCA
B4: chr12:56204332:56204433:-|3pUTR|ENSG00000181852|unk|FALSE|unique (ssRNA)
RNA: GGGAGUUCUACAGUCCGACGAUCUUUUGCCUUUCUCUCACCUUAAUUCCCUUUCUUCCUUACUUUGUUACCUACCCUUAUCUUAGUGCUAACUUCUCUUUCAGGAGGAUGUCUGGGAGUAGUGUGCACUUCACAGCUGCUUUCCAACAGAGGAUUGAGCAUCA
B5: chr5:43295829:43295944:-|CDS|ENSG00000112972|unk|FALSE|unique (ssRNA)
RNA: GGGAGUUCUACAGUCCGACGAUCAAUAUCCUAGCUUUAUUCUAAAGUCAAACUUUAAAAUUUCAUGGCUUAUAUGAAUUUCAUAGUUUCCUUGGACUUCUCUUUCAGAGGGAAAUGAUAAAGAUUUUACCUUGAAUGAUUUUGCAACAGAGGAUUGAGCAUCA
B6: chr5:151662744:151662768:-|3pUTR|ENSG00000113140|msi1_unk|total|mutant (ssRNA)
RNA: GGGAGUUCUACAGUCCGACGAUCGGGGCUCCCGGGACUGCCAGGCUGUUUCAGCCAGGAAGGCCAAAAUCAAGAGUGAGAUGCCGAAAGUUGUAAAACCGAAAAAGUGGAGUUGGUGAAUCGGUUGUUCUUUCCUCACAUUUGCAACAGAGGAUUGAGCAUCA
B7: chr13:42321371:42321394:+|3pUTR|ENSG00000023516|msi1_unk|FALSE|overlapping (ssRNA)
RNA: GGGAGUUCUACAGUCCGACGAUCUUCUGUUUAUGGUGUAAUCAUUCUGAGGUGAGGCUUUUCUUAUUUCCUUUGCAUUUUGCUAGAGCUGUGCUGAGUUCAGCAUUUGCUUAUUUAACCACUACAUAAUGACAGACCAGUUAUCAACAGAGGAUUGAGCAUCA
B8: chr5:41382290:41382405:-|CDS|ENSG00000182836|unk|total|mutant (ssRNA)
RNA: GGGAGUUCUACAGUCCGACGAUCGGCCAAAAAGCUCAUGCGGAAAUGGUCCGCCACUCAGACAAUGAAUUUUACUGGCCAGCCCGGAGCUGGAAUUCGUUAUUUUGAUCUUCGAAUUUCCACCAAGCCCAGAGACCCCGACAACAACAGAGGAUUGAGCAUCA
B9: chr11:46743636:46743700:-|3pUTR|ENSG00000175216|msi1_unk|FALSE|overlapping (ssRNA)
RNA: GGGAGUUCUACAGUCCGACGAUCUUGUAAAAUUGUCCUAAUCUUUCCUAGCUUUUUAAUAGUUAAUAUUAGAAACUCUUUAAUAGUUUUCCUUUCAGUUUGUGAGCUCUUCUCUGUCGCCCUGAAGGGUCACUGUAUUCUGUACAACAGAGGAUUGAGCAUCA
B10: chr14:96341565:96341677:-|CDS|ENSG00000066739|unk|total|mutant (ssRNA)
RNA: GGGAGUUCUACAGUCCGACGAUCCUGGAACCCCAAAAUUAUUUAUGAGCCACACCCACAGCUAACCCGAAAUUUACCAGAGACCGCACCUUCUGACCCAGUGCAGAUUGGACGGUUAAUUGGCCGGUUGGAGUUGAGUCUCACCAACAGAGGAUUGAGCAUCA
B11: chr19:7477204:7477436:-|CDS|ENSG00000104883|control|control|control (ssRNA)
RNA: GGGAGUUCUACAGUCCGACGAUCCAACGCCGUGCACUGGCUGCCCCGGGGCGUGCUGUGGGCCGGCCGCUUCCCGCCGUGGCUAGUGGGCCUCAUGGGCACCAUCUCCUCAAUCCUCAGCAUGUACCAGGCGGCCCGGGCCGGCAACAGAGGAUUGAGCAUCA
B12: ENSG00000180660:stop:overlap|stop_codon|ENSG00000180660|stop_codon|NA|stop_codon (ssRNA)
RNA: GGGAGUUCUACAGUCCGACGAUCAACAAACGUGGCGACUGGCAAGAGAGAUCCUGACCAACCCGAAAAGUUUGGAAAAACUUUAGAGGAUGAUUUAAUCAAGAGCCGAAAUUAUUACCCUUCUCAAAGUCCUUAUUAAGUGUACAACAGAGGAUUGAGCAUCA
B13: chr7:17792983:17793084:-|3pUTR|ENSG00000071189|msi1|total|mutant (ssRNA)
RNA: GGGAGUUCUACAGUCCGACGAUCGACAUGCCUCCGGUAACUGCAGAAACCGCAAAUUAAAUGAUUAAUGAGCUUAUCCGUCACCGUAAACAUACAGAUUCCUAAUUCUAUGACAGUGUACAUAUAUGAAAAUAAAUGAUGAAACAACAGAGGAUUGAGCAUCA
B14: chr19:45712844:45712945:-|CDS|ENSG00000177051|unk|FALSE|bound_elsewhere (ssRNA)
RNA: GGGAGUUCUACAGUCCGACGAUCGGAACAGCGGGCAGCCCUGGCCCUGCAGAGCUACCCACGACCGACCACCCCAGCGCCUGUAGUCUUUGUGUCCGCCGAGCAAGGUGGACCGGCCAAGGGGGUGGGAUCUGAACGGCGGUCCAACAGAGGAUUGAGCAUCA
B15: ENSG00000089050:stop:overlap|stop_codon|ENSG00000089050|stop_codon|NA|stop_codon (ssRNA)
RNA: GGGAGUUCUACAGUCCGACGAUCAGAACACAGAGUUUCAUGAACUGAUUACUGUUGUAAAGUCUUUGCUGAAAGUACCAGCAUAGACUGUAUGAUUUCUGCUAUUUUGCAUCCCAAUAUAGGAGUAGAAUAAUAUCUACUAUCCAACAGAGGAUUGAGCAUCA
B16: chr4:152882748:152882856:+|CDS|ENSG00000164144|unk|total|mutant (ssRNA)
RNA: GGGAGUUCUACAGUCCGACGAUCCAGAAACUGCUGGCUAAAAAUGGAGAGACUCUUCUUGGGGCCAUUAAUUUUUUCAUUGCCCGUGUGAACACUUUGGUGAAUAAAACCAUUGAAGAUACAUUAAUGACUGUGAAACAGUAUCAACAGAGGAUUGAGCAUCA
B17: chr17:79086671:79086772:+|3pUTR|ENSG00000167280|msi1|FALSE|unique (ssRNA)
RNA: GGGAGUUCUACAGUCCGACGAUCAUAGGCUGCAAGAUGCUGAUGCCGAGAAUGAUGAUUUUCUUUCCUGCAGAUGAAACUAUUAGAAAGGGUCUUAGAUUGUGGCAGGUAGGCUUUGGAGCAGGCGCCGAGACAUUUCUGAGCCAACAGAGGAUUGAGCAUCA
B18: chr2:37227669:37227839:-|CDS|ENSG00000115816|unk|total|mutant (ssRNA)
RNA: GGGAGUUCUACAGUCCGACGAUCGUUUACUUUUGCUUUUUUCGGACUUGUGUCAAAAAAAAAGAUGUUGAAUCAAAAAUGCUCCGCGCCCUUUUAACAGGUGUGAACCGGGCAUACCCUUAUUCCCAGACUGGUGAUGACAAACAACAGAGGAUUGAGCAUCA
B19: chr8:58583617:58583718:-|3pUTR|ENSG00000035681|unk|total|mutant (ssRNA)
RNA: GGGAGUUCUACAGUCCGACGAUCGUUUUGUCUUCCUAAUCUAUCACAAUUGCCACCCAUCGGGUUUUGGGUGUGUGUUUUCACCGCGUGGUUACUUUCUAUAAUGCUGUACCCAGAUUCUAAGAACCUGGAGAAGGAUCCGCACAACAGAGGAUUGAGCAUCA
B20: ENSG00000056277:stop:overlap|stop_codon|ENSG00000056277|stop_codon|NA|stop_codon (ssRNA)
RNA: GGGAGUUCUACAGUCCGACGAUCUAGAGAAUGUUUCCAAAAGUACCUCAACUUCUGAACCCACUACUGGCUGCUCAUUGAAAUAGAUUCCUGCUCCAUGGAGUUCAUGCAACCUGGUGCAAGACAAGUUGGAAGUUCCUAAGUCAACAGAGGAUUGAGCAUCA
B21: chr11:65967286:65967395:+|CDS|ENSG00000175467|unk|FALSE|unique (ssRNA)
RNA: GGGAGUUCUACAGUCCGACGAUCGACCUUUAAAAAGACCAAGCGGAGGGUGAAGAAAAUCCGCAAGAAGGAGAAGGAGGUAGUAGUGCGGGCAGAUGACUUGCUGCCUCUCGGGGACCAGACUCAGGAUGGGGACUUUGGUUCCAACAGAGGAUUGAGCAUCA
B22: chr15:73560698:73560803:-|3pUTR|ENSG00000156642|msi1_unk|FALSE|overlapping (ssRNA)
RNA: GGGAGUUCUACAGUCCGACGAUCUUUUGGGCUUGAUGUGCUGUGAAUGUUGCUUUUUUUUUUCCUUUGUUAAAAUAUUUAAAUAGAAGUGAAAAGGUCCUCUGAGGAUCAGAUCAUGCAUGCGCCAUUUUUUACUUAAUGCAGCAACAGAGGAUUGAGCAUCA

These binders were tested against MSI1 full-length (mouse, UniProt Q61474 1-362) (assay: nsRBNS (natural sequence RNA bind-n-seq); RBNS binding buffer (assumed for nsRBNS): 25 mM Tris pH 7.5, 150 mM KCl, 3 mM MgCl2, 0.01% Triton X-100, 500 ug/ml BSA, 20 U/ml SUPERase-In, 4 C; UNK is unkempt and MSI1 is Musashi-1; names of the RNAs are library labels; protein concentration not given here; high values mean tight binding).
UniProt Q61474, sequence (Q61474 whole entry): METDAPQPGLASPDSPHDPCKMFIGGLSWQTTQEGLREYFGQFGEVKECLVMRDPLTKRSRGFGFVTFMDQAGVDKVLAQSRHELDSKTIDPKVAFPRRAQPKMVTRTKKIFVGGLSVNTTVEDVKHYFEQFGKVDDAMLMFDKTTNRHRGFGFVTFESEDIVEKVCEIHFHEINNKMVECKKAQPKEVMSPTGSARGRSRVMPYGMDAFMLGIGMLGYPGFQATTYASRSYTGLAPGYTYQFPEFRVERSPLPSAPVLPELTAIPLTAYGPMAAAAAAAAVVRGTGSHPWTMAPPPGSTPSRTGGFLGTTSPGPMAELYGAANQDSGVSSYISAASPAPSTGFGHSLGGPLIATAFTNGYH

| Binder | binding signal |
| --- | --- |
| B1 | 4.42 enrichment R |
| B2 | 3.72 enrichment R |
| B3 | 0.529 enrichment R |
| B4 | 1.4 enrichment R |
| B5 | 0.654 enrichment R |
| B6 | 0.469 enrichment R |
| B7 | 0.524 enrichment R |
| B8 | 0.273 enrichment R |
| B9 | 14.1 enrichment R |
| B10 | 0.51 enrichment R |
| B11 | 0.477 enrichment R |
| B12 | 0.286 enrichment R |
| B13 | 1.2 enrichment R |
| B14 | 0.68 enrichment R |
| B15 | 0.987 enrichment R |
| B16 | 0.289 enrichment R |
| B17 | 0.69 enrichment R |
| B18 | 0.276 enrichment R |
| B19 | 0.38 enrichment R |
| B20 | 0.336 enrichment R |
| B21 | 0.751 enrichment R |
| B22 | 1.17 enrichment R |
